According to article PMC13083723 (Patterns, 2026):
Hit rate of the full screen: of about 5,400 compounds, about 190 (3.5%) showed an effect of 50% or more. Some of the results follow.

test system: Vero-E6; assay: primary screen, phospholipidosis by LipidTOX staining; higher = more effect of the substance; conditions: 10 µM
Summary of the method: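 Single-concentration screen at 10 μM, with DMSO 0.1 v/v % and amiodarone 10 μM as controls. Read-out is LipidTOX Red phospholipid staining, which tolerates aldehyde fixation, in Vero-E6 cells.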

**Q.** Which result_ITMP does the source give for `CCOc1ccc2ccccc2c1C(=O)N[C@@H]1C(=O)N2[C@@H]1SC(C)(C)[C@@H]2C(=O)O` here?
**A.** The result_ITMP was -1.91%.

**Q.** Which result_ITMP does the source give for `C/C=C/C=C/C(=O)O` here?
**A.** Its result_ITMP is -3.82%.

**Q.** With `CCCC(=O)O[C@]1(C(=O)CCl)[C@@H](C)C[C@H]2[C@@H]3CCC4=CC(=O)C=C[C@]4(C)[C@@]3(F)C(=O)C[C@@]21C` as the molecule, how does the result_ITMP read?
**A.** The result_ITMP was -1.95%.

**Q.** For `CO[C@@]12[C@@H]3NC3CN1C1=C(C(=O)C(N)=C(C)C1=O)[C@@H]2COC(N)=O` (some centres unmarked), which result_ITMP is on record?
**A.** The result_ITMP was 0.39%.

**Q.** How did the result_ITMP turn out when `N#C/C(=C\c1cn(-c2ccccc2)c2ccccc12)C(=O)O` was run?
**A.** Its result_ITMP is -1.05%.

**Q.** How did the result_ITMP turn out when `Cn1cnc2c1c(=O)[nH]c(=O)n2C` was run?
**A.** Its result_ITMP is -4.01%.

**Q.** With `CC(C)NCC(O)COc1ccc(CC(N)=O)cc1` (centres unmarked) [R4A_0002533_001 / SPE_A20239487] as the molecule, how does the result_ITMP read?
**A.** Its result_ITMP is -2.01%.

**Q.** How did the result_ITMP turn out when `CC1=NN(c2ccccc2)C(=O)C1` was run?
**A.** The result_ITMP was -6.74%.

**Q.** How did the result_ITMP turn out when `O=C(OCC(O)CO)c1ccccc1Nc1ccnc2c(C(F)(F)F)cccc12` (centres unmarked) was run?
**A.** Its result_ITMP is -5.11%.

**Q.** For `Cc1cccc(NC(=O)CN2CCC(c3ccccn3)CC2)c1`, which result_ITMP is on record?
**A.** The result_ITMP was -0.98%.

**Q.** How did the result_ITMP turn out when `Cc1ccc(S(N)(=O)=O)cc1` was run?
**A.** The result_ITMP was 0.17%.

**Q.** Which result_ITMP does the source give for `O=C1c2ccccc2CCC1CNCCc1ccc(O)cc1` (centres unmarked) here?
**A.** Its result_ITMP is 2.1%.

**Q.** With `O=C(O)c1ccc(O)c2ncccc12` as the molecule, how does the result_ITMP read?
**A.** Its result_ITMP is -2.1%.

**Q.** `COc1cc2ncnc(Nc3ccc(O)c(Br)c3)c2cc1OC` was tested. Which result_ITMP did it give?
**A.** Its result_ITMP is 4.01%.

**Q.** For `CN1C(=O)N(c2ccc(C#N)c(C(F)(F)F)c2)C(=O)[C@]1(CO)c1ccccc1`, which result_ITMP is on record?
**A.** The result_ITMP was -2.15%.

**Q.** For `O=c1c(-c2ccccc2)c1-c1ccccc1`, which result_ITMP is on record?
**A.** Its result_ITMP is -4.48%.

**Q.** `COc1cc(-c2cc(-c3cccc(O)c3)cnc2N)cc(OC)c1OC` was tested. Which result_ITMP did it give?
**A.** The result_ITMP was 0.12%.

**Q.** With `CCOC(=O)N1CSCC1C(=O)O` (centres unmarked) as the molecule, how does the result_ITMP read?
**A.** Its result_ITMP is -3.59%.

**Q.** `NC(=O)c1cc[n+](CC2=C(C(=O)[O-])N3C(=O)[C@@H](NC(=O)[C@@H](c4ccccc4)S(=O)(=O)[O-])[C@H]3SC2)cc1` was tested. Which result_ITMP did it give?
**A.** The result_ITMP was 4.59%.

**Q.** For `O=c1cccc2n1C[C@@H]1CNC[C@H]2C1`, which result_ITMP is on record?
**A.** Its result_ITMP is 0.37%.

**Q.** `Cc1ccc(C(C)C)c(O)c1` was tested. Which result_ITMP did it give?
**A.** The result_ITMP was -2.22%.

**Q.** Which result_ITMP does the source give for `CCCC(=O)Nc1cccc(NC(=O)c2ccccc2Br)c1` here?
**A.** The result_ITMP was -1.39%.

**Q.** With `CCCCN1CC(O)C(O)C(O)C1CO` (centres unmarked) as the molecule, how does the result_ITMP read?
**A.** The result_ITMP was -4.4%.

**Q.** How did the result_ITMP turn out when `CCCCC[C@H](O)/C=C/[C@@H]1[C@H]2C/C(=C/CCCC(=O)[O-])O[C@H]2C[C@H]1O` was run?
**A.** Its result_ITMP is 0.37%.

**Q.** How did the result_ITMP turn out when `CO[C@H]1C[C@@H]2CC[C@@H](C)[C@@](O)(O2)C(=O)C(=O)N2CCCC[C@H]2C(=O)O[C@H]([C@H](C)C[C@@H]2CC[C@H](n3cnnn3)[C@H](OC)C2)CC(=O)[C@H](C)/C=C(\C)[C@@H](O)[C@@H](OC)C(=O)[C@H](C)C[C@H](C)/C=C/C=C/C=C/1C` was run?
**A.** Its result_ITMP is -4.35%.

**Q.** With `Cc1cccc(C)c1NC(=O)CN1CCN(CCCC(c2ccc(F)cc2)c2ccc(F)cc2)CC1` as the molecule, how does the result_ITMP read?
**A.** The result_ITMP was 52.6%.

**Q.** Which result_ITMP does the source give for `Cc1cc(Nc2cc(CN3CCOCC3)c3nc(C)c(Cc4ccc(Cl)cc4F)n3n2)[nH]n1` here?
**A.** Its result_ITMP is 13%.

**Q.** Which result_ITMP does the source give for `C=C1CC[C@H](O)C/C1=C/C=C1\CCC[C@]2(C)C([C@H](C)/C=C/[C@H](C)C(C)C)CC[C@@H]12` (some centres unmarked) here?
**A.** Its result_ITMP is -2.68%.

**Q.** `CCNCCCNCCCCNCCCNCC` was tested. Which result_ITMP did it give?
**A.** Its result_ITMP is -2.17%.

**Q.** Which result_ITMP does the source give for `CC(CCCCC(=O)Nc1ccc(C(F)(F)F)cc1)NCCc1c[nH]cn1` (centres unmarked) here?
**A.** The result_ITMP was -3.87%.

**Q.** Which result_ITMP does the source give for `CN(C)C(=O)c1cc2cnc(Nc3ccc(N4CCNCC4)cn3)nc2n1C1CCCC1` here?
**A.** The result_ITMP was 16.3%.

**Q.** With `CC/C=C(\C(=O)N[C@@H]1C(=O)N2C(C(=O)OCOC(=O)C(C)(C)C)=C(COC(N)=O)CS[C@H]12)c1csc(N)n1` as the molecule, how does the result_ITMP read?
**A.** Its result_ITMP is -4.26%.

**Q.** For `C=CC(C)(O)CCC=C(C)C` (centres unmarked), which result_ITMP is on record?
**A.** Its result_ITMP is -8.91%.

**Q.** How did the result_ITMP turn out when `CC[C@@]1(O)C(=O)OCc2c1cc1n(c2=O)Cc2cc3c(CN(C)C)c(O)ccc3nc2-1` was run?
**A.** Its result_ITMP is 0.11%.

**Q.** Which result_ITMP does the source give for `Nc1nnc(-c2cccc(Cl)c2Cl)c(N)n1` here?
**A.** Its result_ITMP is -2.56%.

**Q.** With `CCOC(=O)N[C@@H]1CC[C@@H]2[C@@H](C1)C[C@H]1C(=O)O[C@H](C)[C@H]1[C@H]2/C=C/c1ccc(-c2cccc(F)c2)cn1` as the molecule, how does the result_ITMP read?
**A.** The result_ITMP was -3.79%.

**Q.** Which result_ITMP does the source give for `C[C@H](N/C(=N\C#N)Nc1cccc2ncccc12)c1ccccc1` here?
**A.** Its result_ITMP is -7.08%.

**Q.** With `NC(C(=O)O)c1ccc(C(=O)O)c(C(=O)O)c1` (racemic) as the molecule, how does the result_ITMP read?
**A.** The result_ITMP was -2.14%.

**Q.** With `CCCCCS(=O)(=O)CCCCCCCCCCn1c(-c2ccc(O)cc2)c(C)c2cc(O)ccc21` as the molecule, how does the result_ITMP read?
**A.** The result_ITMP was -3.27%.

**Q.** With `CCCCOc1ccc(-c2cncc(C(=O)NCc3cccnc3N3CCOCC3)c2)cc1Cl` as the molecule, how does the result_ITMP read?
**A.** The result_ITMP was 3.79%.

**Q.** For `CN1C(=O)N(c2cc(Cl)cc(Cl)c2)C(=O)[C@]12CN(Cc1cc(C(=O)O)cs1)C[C@H]2c1ccc(C#N)cc1`, which result_ITMP is on record?
**A.** The result_ITMP was 0.21%.

**Q.** `Clc1cc(Cl)c(OCC#CI)cc1Cl` was tested. Which result_ITMP did it give?
**A.** The result_ITMP was 7.92%.

**Q.** `Nc1nc(=O)[nH]cc1F` was tested. Which result_ITMP did it give?
**A.** The result_ITMP was -1.94%.

**Q.** With `CCN1CCN(c2ccc(Nc3cc(N(C)C(=O)Nc4c(Cl)c(OC)cc(OC)c4Cl)ncn3)cc2)CC1` as the molecule, how does the result_ITMP read?
**A.** The result_ITMP was 3.12%.

**Q.** `Oc1cc(O)cc(/C=C/c2ccc(O)c(O)c2)c1` was tested. Which result_ITMP did it give?
**A.** The result_ITMP was -1.23%.

**Q.** With `O=C(NC1CC1)c1cc(-c2cccs2)on1` as the molecule, how does the result_ITMP read?
**A.** Its result_ITMP is -4.98%.

**Q.** `OC[C@@H](O)[C@@H](O)[C@H](O)[C@@H](O)CO` was tested. Which result_ITMP did it give?
**A.** The result_ITMP was 1.05%.

**Q.** Which result_ITMP does the source give for `COc1cc2c(cc1Cc1cccc(Cl)c1F)c(=O)c(C(=O)O)cn2[C@H](CO)C(C)C` here?
**A.** The result_ITMP was -4.09%.

**Q.** For `COc1ccc2cc3[n+](cc2c1OC)CCc1cc2c(cc1-3)OCO2`, which result_ITMP is on record?
**A.** Its result_ITMP is 0.6%.

**Q.** Which result_ITMP does the source give for `Nc1ncnc2c1ncn2[C@H]1CC[C@@H](CO)O1` here?
**A.** The result_ITMP was -3.8%.

**Q.** How did the result_ITMP turn out when `Nc1ncc(Cc2ccc(Br)cc2)s1` was run?
**A.** Its result_ITMP is -1.9%.

**Q.** With `Cc1ccc2c(c1)[C@]13CCCC[C@@H]1[C@H](C2)N(C)CC3` as the molecule, how does the result_ITMP read?
**A.** The result_ITMP was 3.88%.

**Q.** How did the result_ITMP turn out when `Nc1ncnc2c1ncn2[C@@H]1O[C@H](CO)C[C@H]1O` was run?
**A.** The result_ITMP was -8.96%.

**Q.** Which result_ITMP does the source give for `CC(C)n1c(=O)n(C(=O)NC2CC3CCC(C2)N3C)c2ccccc21` (centres unmarked) here?
**A.** Its result_ITMP is 15.5%.

**Q.** With `O=C(CCCN1CCC2(CC1)C(=O)NCN2c1ccccc1)c1ccc(F)cc1` as the molecule, how does the result_ITMP read?
**A.** The result_ITMP was 20.3%.

**Q.** For `N#CCC(=O)c1ccccc1`, which result_ITMP is on record?
**A.** The result_ITMP was -3.41%.

**Q.** How did the result_ITMP turn out when `NC(=O)c1cc[n+](CC2=C(C(=O)[O-])N3C(=O)[C@@H](NC(=O)Cc4cccs4)[C@H]3SC2)cc1` was run?
**A.** The result_ITMP was -5.69%.

**Q.** Which result_ITMP does the source give for `Cc1nccn1CC1CCc2c(c3ccccc3n2C)C1=O` (centres unmarked) here?
**A.** Its result_ITMP is -1.72%.

**Q.** With `NC(=O)c1cnc2[nH]ccc2c1N[C@H]1C2CC3CC1C[C@](O)(C3)C2` as the molecule, how does the result_ITMP read?
**A.** The result_ITMP was -1.38%.
